# Measured values: paper PMC4336329 (PLoS ONE, 2015)
# In all, about 310,000 compounds went through this assay and about 2,200 (0.71%) showed an effect of 50% or more. Effects have a minus sign here. The list shows a part of the results.
# Target: human ether-à-go-go-related gene (hERG) potassium channel (human, UniProt Q12809)
# Experiment: primary screen, population patch clamp on CHO cells stably expressing hERG
# Chain of human ether-à-go-go-related gene (hERG) potassium channel (Q12809 whole entry, looked up): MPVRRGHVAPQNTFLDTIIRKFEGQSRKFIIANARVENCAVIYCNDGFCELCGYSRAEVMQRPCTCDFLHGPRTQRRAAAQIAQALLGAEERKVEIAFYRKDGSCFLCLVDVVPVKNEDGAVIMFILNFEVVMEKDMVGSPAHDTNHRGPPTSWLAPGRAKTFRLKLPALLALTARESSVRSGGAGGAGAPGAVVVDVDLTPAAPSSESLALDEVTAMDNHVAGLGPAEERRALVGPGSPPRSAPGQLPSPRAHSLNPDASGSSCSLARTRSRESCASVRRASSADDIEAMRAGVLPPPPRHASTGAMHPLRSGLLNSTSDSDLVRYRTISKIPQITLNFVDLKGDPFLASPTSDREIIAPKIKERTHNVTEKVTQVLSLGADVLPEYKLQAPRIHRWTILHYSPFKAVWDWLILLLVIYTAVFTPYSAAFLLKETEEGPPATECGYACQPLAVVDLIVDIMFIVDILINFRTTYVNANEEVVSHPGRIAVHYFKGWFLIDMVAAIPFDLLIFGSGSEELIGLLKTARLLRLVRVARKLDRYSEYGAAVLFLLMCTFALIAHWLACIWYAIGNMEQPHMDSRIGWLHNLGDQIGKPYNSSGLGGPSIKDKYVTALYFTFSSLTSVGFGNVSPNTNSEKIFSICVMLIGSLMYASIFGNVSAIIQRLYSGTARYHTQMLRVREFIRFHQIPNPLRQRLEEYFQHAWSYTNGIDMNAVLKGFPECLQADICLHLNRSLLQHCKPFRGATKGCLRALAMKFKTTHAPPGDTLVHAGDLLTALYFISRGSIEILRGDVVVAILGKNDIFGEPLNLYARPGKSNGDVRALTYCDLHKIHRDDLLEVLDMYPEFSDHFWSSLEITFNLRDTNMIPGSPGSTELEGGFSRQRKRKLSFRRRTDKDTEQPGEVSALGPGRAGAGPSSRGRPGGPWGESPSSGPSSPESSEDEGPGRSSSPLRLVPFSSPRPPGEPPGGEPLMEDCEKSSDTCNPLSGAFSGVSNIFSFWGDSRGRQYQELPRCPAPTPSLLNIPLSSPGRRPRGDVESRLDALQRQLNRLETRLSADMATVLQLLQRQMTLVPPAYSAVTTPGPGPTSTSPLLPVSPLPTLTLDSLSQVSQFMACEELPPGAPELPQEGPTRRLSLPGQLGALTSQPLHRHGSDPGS
row,SMILES,"hERG current change (%, negative = inhibition) at 1uM [%]"
1,Cc1ccc(C2=CSC3=NS(=O)(=O)CCN23)cc1C,3.61
2,COc1ccc(C(=O)NCC(=O)O)cc1,11.9
3,C=C[C@@H]1C2=CCOC(=O)C2=CO[C@H]1O[C@@H]1O[C@H](CO)[C@@H](O)[C@H](O)[C@H]1O,12.6
4,CC1(C)Cc2c(C#N)c(N3CCN(C(=O)c4ccccc4)CC3)nc(-c3ccco3)c2CS1,11.7
5,COc1ccc(CCN2C(=O)CC(NNC(=O)c3ccccc3Br)C2=O)cc1OC (centres unmarked),8.86
6,O=C(Nc1ccccc1-c1ccccc1)NC1CC2CCCC(C1)N2Cc1ccc(F)cc1 (centres unmarked),-12.2
7,Cc1ccc(OCc2ccc([N+](=O)[O-])cc2)c([N+](=O)[O-])n1,-2.94
8,CC1=CC(C)(C)N2C(=O)C(=Nc3ccc(O)cc3)c3cccc1c32,4.91
9,O=c1[nH]c(CSc2nnc(-c3ccccc3)n2C2CCCCC2)nc2ccccc12,0.571
10,CCCC(=O)N1CCN(c2ccc(NC(=O)c3ccco3)cc2)CC1,9.66
11,CC(=O)Nc1ccc(C(=O)Nc2nc(-c3ccccn3)cs2)cc1,18.7
12,CCn1c(=O)c2sccc2n(Cc2cccc(C)c2)c1=O,3.66
13,CN(C)C1=NC[C@H](Cc2ccccc2)N1CCc1ccc(F)cc1,-20.3
14,Cc1ccc(NC(=O)CSc2nnc(/N=C/N(C)C)s2)cc1,6.96
15,CCCCOC(=O)c1ccc(NC(=O)/C=C/c2cccs2)cc1,1.76
16,CC(Sc1nc(N)cc(N)n1)C(=O)NCCC1=CCCCC1 (centres unmarked),19
17,COc1ccc(NC(=O)Nc2cccnc2)c(OC)c1,18.4
18,COc1ccc(CC(C(=O)Nc2cccc(F)c2)c2nn[nH]n2)c(OC)c1 (centres unmarked),3.05
19,CC(C)CN(C(=O)COC(=O)Cc1ccc(Cl)cc1)c1c(N)n(Cc2ccccc2)c(=O)[nH]c1=O,2.58

row,SMILES,"hERG current change (%, negative = inhibition) at 1uM [%]"
1,O=C(N/C(=C\c1ccc([N+](=O)[O-])cc1)C(=O)N1CCOCC1)c1cccc(Br)c1,-79
2,Cc1c(NC(=O)/C(C#N)=C/c2cccs2)c(=O)n(-c2ccccc2)n1C,6.92
3,Cc1nn(Cc2ccc(F)cc2Cl)c(C)c1[N+](=O)[O-],11.4
4,CCOC(=O)c1c(-c2ccc(OC)cc2)oc2ccc(O)cc12,8.36
5,Cc1nc2cc(S(=O)(=O)N3CCC(C(=O)O)CC3)ccc2n1C1CCCC1,11.6
6,O=c1c2ccccc2nnn1CSc1nnnn1-c1ccc(O)cc1,-13.2
7,CC1SCC(=O)N(CC(=O)NC2CCCCC2)C1=O (centres unmarked),16.6
8,OCC(O)CNC(=S)NC1CCCCC1 (centres unmarked),11.4
9,C=CCn1c(O)c(/C=C2\C=Nc3ccccc32)c(=O)[nH]c1=O,10.1
10,CCOc1ccc(C2CC(=O)NC(SCC(=O)OC)=C2C#N)cc1 (centres unmarked),8.09
11,CC1CCN(S(=O)(=O)c2ccc3c(ccn3CCC(=O)NC(C)C)c2)CC1,11.9
12,O=C(O)c1cc(S(=O)(=O)N2CCN(C(=O)c3ccco3)CC2)c(Cl)cc1Cl,22.5
13,COCc1cc(=O)n2[nH]c(-c3ccsc3-n3c(C)ccc3C)cc2n1,5.79
14,Cc1ccnc(NS(=O)(=O)c2ccc(NC(=O)c3ccc(Cl)cc3[N+](=O)[O-])cc2)n1,11.1
15,O=c1[nH]c2cc3c(cc2cc1C(c1nnnn1Cc1ccccc1)N1CCCc2ccccc21)OCO3 (centres unmarked),19.7
16,CCOC(=O)c1c(N)nn(C(=O)c2ccccc2)c1-c1ccccc1,13.3
17,O=C(NCc1cccnc1)c1ccc(Cl)cc1[N+](=O)[O-],7.05
18,CCCn1c(=O)c2c(nc3n2CCCN3CCc2ccccc2)n(C)c1=O,-6.26
19,CC(Oc1cc2oc(=O)c3c(c2cc1Cl)CCC3)C(=O)NCc1ccncc1 (centres unmarked),9.16

row,SMILES,"hERG current change (%, negative = inhibition) at 1uM [%]"
1,CCn1cnc2cc([N+](=O)[O-])ccc21,7.74
2,O=C(N/N=C/c1coc2ccccc2c1=O)c1cn(-c2ccccc2)nc1-c1ccc(F)cc1,11.5
3,Cc1ccc(C(=O)NCC(=O)OCc2cccc(Br)c2)cc1,13.7
4,COc1ccc(-n2cnc3cc(NCc4ccco4)ccc32)cc1,-5.15
5,C=C(C)C(=O)Nc1cccc(C2=NOC3(C2)C[C@H](C(N)=O)N(C(=O)c2ccccc2)C3)c1 (some centres unmarked),12.5
6,CSc1c(CC(=O)Nc2ccccc2)n(C)c2ccccc12,7.41
7,Cn1nc(C(=O)Nc2cccc(C(F)(F)F)c2)ccc1=O,-0.902
8,COc1ccc(/C=N/NC(=O)c2ccco2)cc1OCc1ccccc1,11.5
9,COc1c(Cl)cc(C(=O)O)cc1Cl,3.48
10,CC(C)C[C@H](NC(=O)N1CC(=O)Nc2ccccc21)C(=O)N[C@H](C(=O)O)c1ccccc1,9.24
11,COc1cccc(CNS(=O)(=O)c2ccc3c(c2)C(C)(C)C(=O)N3C)c1,-2.24
12,CC(=O)Nc1ccc(S(=O)(=O)N2CCN(CCN3CCOCC3)CC2)cc1Cl,10.4
13,O=C(COC(=O)C1(c2ccccc2F)CCCC1)NC1CCS(=O)(=O)C1 (centres unmarked),15.3
14,Cc1cccc(N2C(=O)Cc3ccccc3C2=O)c1,2
15,c1cnc2ccc(-c3ccc4ncccc4c3)cc2c1,11.9
16,O=C(/C=C/c1ccccc1)Nc1ccc(C(=O)N2CCCCC2)cc1,-0.47
17,C[C@H]1C=C(C(=O)NC2CC2)O[C@@H](OCc2ccc(CO)cc2)C1,6.19
18,CC(=O)Nc1nc2c(s1)C(=O)NCC(C)(C)C2,16.1
